In patent US5972982A (priority 1997, dated 1999):

How the values were obtained:
[1] = system: Mycobacterium tuberculosis strain H37Rv
[2] = system: Poliovirus Type III vaccine strain (ATCC VR 300)
[3] = system: Respiratory Syncytial Virus (RSV, strain Long)

With `CCCCCCCCCCCCCCCCCCOCC(CO)n1cncn1` (stereo not shown) [CPR 1004, 1-O-octadecyl-2-(1-triazolyl)-2-deoxy-glycerol] the colony growth inhibition [1] was “inhibits the colony growth relative to control”, the “development of viral cytopathic effect (in words)” value (shortened to “development”) [2] was “inhibited the development of viral cytopathic effect” and the colony growth inhibition (Streptococcus pyogenes) was “inhibited the colony growth relative to the controls”.
`CCCCCCCCCCCCCCCCCCOCC(CO)n1ccnc1` (stereo not shown) [CPR 1005, 1-O-octadecyl-2-(1-imidazolyl)-2-deoxy-glycerol] was tested, and the colony growth inhibition [1] was “inhibits the colony growth relative to control”, the “VIRAL CPE” value [2] was 1+ (key: ±: None of the cells rounded; 1+: <25% of cells rounded; 2+: 25 to 50% of the cells rounded; 3+: 75% of the cells rounded; 4+: 100% of the cells rounded) and the “development” value [2] was “inhibited the development of viral cytopathic effect”. The colony growth inhibition (Streptococcus pyogenes) was “inhibited the colony growth relative to the controls”, the “VIRAL CPE” value [3] was 2+ (key: ±: None of the cells rounded; 1+: <25% of cells rounded; 2+: 25 to 50% of the cells rounded; 3+: 75% of the cells rounded; 4+: 100% of the cells rounded) and the “development” value [3] was “inhibits the development of viral cytopathic effect”.
With `CCCCCCCCCCCCCCCCOCC(CO)n1ccnc1` (stereo not shown) [CPR 1104, 1-O-hexadecyl-2-(1-imidazolyl)-2-deoxy-glycerol] the colony growth inhibition [1] was “inhibits the colony growth relative to control”.
